# Data as given in the supplement of paper PMC8728848.
# The other results are listed elsewhere or left out.
# B1: HPAIIITrx (Helix pomatia), Q1KM18 (protein)
# chain: MLFVTIISLGLLAIVHGQCALKTIAFSAAIDREQTFDANQVVIYDIVITNHGNAYDNSTGLFTAPVDGMYSFQLNLLTIKEKEGWLELVHNGQLKVSVYAKQDSTYDSSSNSVIIKMKEGDRVNVRAHKKSGLFGRDDELYNTFSGHFLSGL
# What was measured:
# Test in all cases: glycan array binding signal (z-score within array); higher = stronger binding
# Settings in all cases: glycan notation: IUPAC condensed, linker removed
# [1] = target: Man(a1-2)Man(a1-2)Man(a1-3)Man
# In short: (§1)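 From the Consortium for Functional Glycomics database, 3228 arrays were curated, keeping only those whose protein sequence was available. Binding is given as a within-array Z-score averaged across arrays sharing a protein sequence and across linkers. Negative Z-scores can be read as non-binding.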
# [2] = target: Man(a1-2)Man(a1-2)Man(a1-6)[Man(a1-3)]Man
# In short: as §1
# Man(a1-2)Man(a1-3)Man = target: Man(a1-2)Man(a1-3)Man
# In short: as §1
# [3] = target: Man(a1-2)Man(a1-3)[Man(a1-2)Man(a1-6)]Man
# In short: as §1
# [4] = target: Man(a1-2)Man(a1-3)[Man(a1-2)Man(a1-6)]Man(a1-6)[Man(a1-2)Man(a1-2)Man(a1-3)]Man
# In short: as §1
# [5] = target: Man(a1-2)Man(a1-3)[Man(a1-2)Man(a1-6)]Man(a1-6)[Man(a1-2)Man(a1-2)Man(a1-3)]Man(b1-4)GlcNAc(b1-4)GlcNAc
# In short: as §1
# [6] = target: Man(a1-2)Man(a1-3)[Man(a1-6)]Man(a1-6)[Man(a1-2)Man(a1-3)]Man(b1-4)GlcNAc(b1-4)GlcNAc
# In short: as §1
# [7] = target: Man(a1-2)Man(a1-6)[Man(a1-3)]Man(a1-6)[Man(a1-2)Man(a1-2)Man(a1-3)]Man
# In short: as §1
# [8] = target: Man(a1-2)Man(a1-6)[Man(a1-3)]Man(a1-6)[Man(a1-2)Man(a1-2)Man(a1-3)]Man(b1-4)GlcNAc(b1-4)GlcNAc
# In short: as §1
# Man(a1-3)[Man(a1-6)]Man = target: Man(a1-3)[Man(a1-6)]Man
# In short: as §1
# [9] = target: Man(a1-3)[Man(a1-6)]Man(a1-6)[Man(a1-2)Man(a1-3)]Man(b1-4)GlcNAc(b1-4)GlcNAc
# In short: as §1
# [10] = target: Man(a1-3)[Man(a1-6)]Man(a1-6)[Man(a1-3)]Man
# In short: as §1
# [11] = target: Man(a1-3)[Man(a1-6)]Man(a1-6)[Man(a1-3)]Man(b1-4)GlcNAc(b1-4)GlcNAc
# In short: as §1
# [12] = target: Man(a1-3)[Man(a1-6)]Man(b1-4)GlcNAc(b1-4)GlcNAc
# In short: as §1
# [13] = target: Man(a1-3)[Man(a1-6)]Man(b1-4)GlcNAc(b1-4)[Fuc(a1-6)]GlcNAc
# In short: as §1
# Man(a1-6)Man = target: Man(a1-6)Man
# In short: as §1
# Man(b1-4)GlcNAc = target: Man(b1-4)GlcNAc
# In short: as §1
# MurNAc(b1-4)GlcNAc = target: MurNAc(b1-4)GlcNAc
# In short: as §1
# Neu5Ac(a2-3)Gal = target: Neu5Ac(a2-3)Gal
# In short: as §1
# [14] = target: Neu5Ac(a2-3)Gal(b1-3)GalNAc
# In short: as §1
# [15] = target: Neu5Ac(a2-3)Gal(b1-3)GalNAc(b1-3)Gal(a1-4)Gal(b1-4)Glc
# In short: as §1
# [16] = target: Neu5Ac(a2-3)Gal(b1-3)GalNAc(b1-3)Gal(b1-4)GlcNAc
# In short: as §1
# [17] = target: Neu5Ac(a2-3)Gal(b1-3)GalNAc(b1-4)[Neu5Ac(a2-3)]Gal(b1-4)Glc
# In short: as §1
# [18] = target: Neu5Ac(a2-3)Gal(b1-3)GalNAc(b1-4)[Neu5Ac(a2-8)Neu5Ac(a2-3)]Gal(b1-4)Glc
# In short: as §1
# [19] = target: Neu5Ac(a2-3)Gal(b1-3)GalNAc6S
# In short: as §1
# [20] = target: Neu5Ac(a2-3)Gal(b1-3)GlcNAc
# In short: as §1
# [21] = target: Neu5Ac(a2-3)Gal(b1-3)GlcNAc(b1-2)Man
# In short: as §1
# [22] = target: Neu5Ac(a2-3)Gal(b1-3)GlcNAc(b1-2)Man(a1-3)[GlcNAc(b1-4)][Neu5Ac(a2-3)Gal(b1-3)GlcNAc(b1-2)Man(a1-6)]Man(b1-4)GlcNAc(b1-4)GlcNAc
# In short: as §1
# [23] = target: Neu5Ac(a2-3)Gal(b1-3)GlcNAc(b1-2)Man(a1-3)[Neu5Ac(a2-3)Gal(b1-3)GlcNAc(b1-2)Man(a1-6)]Man(b1-4)GlcNAc(b1-4)GlcNAc
# In short: as §1
# [24] = target: Neu5Ac(a2-3)Gal(b1-3)GlcNAc(b1-3)Gal(b1-3)GlcNAc
# In short: as §1
# [25] = target: Neu5Ac(a2-3)Gal(b1-3)GlcNAc(b1-3)Gal(b1-4)GlcNAc
# In short: as §1
# [26] = target: Neu5Ac(a2-3)Gal(b1-3)GlcNAc(b1-3)GalNAc
# In short: as §1
# [27] = target: Neu5Ac(a2-3)Gal(b1-3)GlcNAc(b1-4)Gal(b1-4)Glc
# In short: as §1
# [28] = target: Neu5Ac(a2-3)Gal(b1-3)GlcNAc(b1-6)GalNAc
# In short: as §1
# [29] = target: Neu5Ac(a2-3)Gal(b1-3)GlcNAc6S
# In short: as §1
# [30] = target: Neu5Ac(a2-3)Gal(b1-3)[Fuc(a1-4)]GlcNAc
# In short: as §1
# [31] = target: Neu5Ac(a2-3)Gal(b1-3)[Fuc(a1-4)]GlcNAc(b1-3)Gal(b1-3)[Fuc(a1-4)]GlcNAc
# In short: as §1
# [32] = target: Neu5Ac(a2-3)Gal(b1-3)[Fuc(a1-4)]GlcNAc(b1-3)Gal(b1-4)[Fuc(a1-3)]GlcNAc
# In short: as §1
# [33] = target: Neu5Ac(a2-3)Gal(b1-3)[GlcNAc(b1-6)]GalNAc
# In short: as §1
# [34] = target: Neu5Ac(a2-3)Gal(b1-3)[Neu5Ac(a2-3)Gal(b1-4)]GlcNAc
# In short: as §1
# [35] = target: Neu5Ac(a2-3)Gal(b1-3)[Neu5Ac(a2-6)]GalNAc
# In short: as §1
# [36] = target: Neu5Ac(a2-3)Gal(b1-3)[Neu5Ac(a2-6)]GlcNAc(b1-3)[Fuc(a1-3)[Gal(b1-4)]GlcNAc(b1-6)]Gal(b1-4)Glc
# In short: as §1
# [37] = target: Neu5Ac(a2-3)Gal(b1-3)]Neu5Ac(a2-3)Gal(b1-4)]GlcNAc
# In short: as §1
# Neu5Ac(a2-3)Gal(b1-4)Glc = target: Neu5Ac(a2-3)Gal(b1-4)Glc
# In short: as §1
# [38] = target: Neu5Ac(a2-3)Gal(b1-4)GlcNAc
# In short: as §1
binder,measurement,setting,value
B1,glycan array binding signal (z-score),[1],0.469
same,glycan array binding signal (z-score),[2],-0.141
same,glycan array binding signal (z-score),Man(a1-2)Man(a1-3)Man,-0.321
same,glycan array binding signal (z-score),[3],-0.53
same,glycan array binding signal (z-score),[4],-0.433
same,glycan array binding signal (z-score),[5],0.127
same,glycan array binding signal (z-score),[6],-0.25
same,glycan array binding signal (z-score),[7],-0.205
same,glycan array binding signal (z-score),[8],-0.111
same,glycan array binding signal (z-score),Man(a1-3)[Man(a1-6)]Man,-0.152
same,glycan array binding signal (z-score),[9],0.784
same,glycan array binding signal (z-score),[10],-0.183
same,glycan array binding signal (z-score),[11],-0.342
same,glycan array binding signal (z-score),[12],-0.14
same,glycan array binding signal (z-score),[13],-0.393
same,glycan array binding signal (z-score),Man(a1-6)Man,0.212
same,glycan array binding signal (z-score),Man(b1-4)GlcNAc,-0.249
same,glycan array binding signal (z-score),MurNAc(b1-4)GlcNAc,-0.392
same,glycan array binding signal (z-score),Neu5Ac(a2-3)Gal,-0.093
same,glycan array binding signal (z-score),[14],-0.415
same,glycan array binding signal (z-score),[15],-0.222
same,glycan array binding signal (z-score),[16],-0.377
same,glycan array binding signal (z-score),[17],-0.412
same,glycan array binding signal (z-score),[18],-0.255
same,glycan array binding signal (z-score),[19],-0.302
same,glycan array binding signal (z-score),[20],-0.407
same,glycan array binding signal (z-score),[21],0.114
same,glycan array binding signal (z-score),[22],-0.253
same,glycan array binding signal (z-score),[23],0.179
same,glycan array binding signal (z-score),[24],-0.405
same,glycan array binding signal (z-score),[25],-0.46
same,glycan array binding signal (z-score),[26],-0.255
same,glycan array binding signal (z-score),[27],-0.297
same,glycan array binding signal (z-score),[28],-0.423
same,glycan array binding signal (z-score),[29],0.657
same,glycan array binding signal (z-score),[30],-0.4
same,glycan array binding signal (z-score),[31],-0.101
same,glycan array binding signal (z-score),[32],1.57
same,glycan array binding signal (z-score),[33],-0.366
same,glycan array binding signal (z-score),[34],-0.323
same,glycan array binding signal (z-score),[35],-0.012
same,glycan array binding signal (z-score),[36],-0.403
same,glycan array binding signal (z-score),[37],-0.402
same,glycan array binding signal (z-score),Neu5Ac(a2-3)Gal(b1-4)Glc,-0.124
same,glycan array binding signal (z-score),[38],-0.432
